The record followed here is the supplement of paper PMC11417369.

The list shows a part of the results.

For the test, the system named is PfHDP1 homeodomain (GST-tagged). Briefly: gcPBM binding intensity (ln(normalized median fluorescence intensity)); higher = stronger DNA binding. The method in brief:
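The binding buffer was 1× PBS containing 1% milk, 0.2 mg/ml BSA, 0.5% salmon testes DNA and 0.03% Triton X-100. In it, GST-tagged P. falciparum DNA-binding domains expressed in E. coli were applied for 1 h to an Agilent 4 × 180k array of primer-extended double-stranded 36-bp intergenic genomic probes plus negative controls. Binding intensity, read with Alexa488 anti-GST antibody and a 488 nm scan, is the highest Masliner-normalised natural-log median intensity across replicate spots of either probe orientation.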
“ACGCTACATAAATACGTGCACATCTTTTTGTGTATA [GTGCAC_site9675]”: the “gcPBM binding intensity (ln)” value was found to be 9.77.

As for “AATATAAACAAACACACACACATATATATATATATT [CACACA_site5592]”, the “gcPBM binding intensity (ln)” value turned out to be 6.92.

As for “ATAAAAAAAGGACACACACACATATATTTATTTATA [CACACA_site7438]”, the “gcPBM binding intensity (ln)” value was determined as 6.81.

With “AAAAAAAAAAAAAATAGTACAATACCCAAATATAAC [XGTACX_site6684]”, the “gcPBM binding intensity (ln)” value came out at 6.77.

In the case of “ATGTCATATAATAGTACACACATGAAAATATAAATA [CACACA_site3215]”, the “gcPBM binding intensity (ln)” value was found to be 6.72.

With “TTATATGTATGGAGGTTTTTGTATATAGATATATAG [CACACA_negctrl_site177]”, the “gcPBM binding intensity (ln)” value worked out at 6.34.

Consider “CATCTTATATAATCATGTACATATAGAGACTTCTTT [XGTACX_site7685]”, for which the “gcPBM binding intensity (ln)” value amounted to 6.46.

For the sequence “TTTTTCTTACATGAGTGTACACACTTTTTTTCAGAA [XGTACX_site138]”, the “gcPBM binding intensity (ln)” value amounted to 8.48.

Consider “GGGGGAATTTACATGGGTACACATGTATTAAAAAAT [XGTACX_site4130]”, for which the “gcPBM binding intensity (ln)” value stood at 7.81.

With “TTTTGAAAAAGTTGCACACAAAATTTAAAAAAAAAA [CACACA_site1632]”, the “gcPBM binding intensity (ln)” value turned out to be 9.25.

With “TTAAATAGAAATAAGACTAACAATGAACCAAAAAAA [CACACA_negctrl_site991]”, the “gcPBM binding intensity (ln)” value came to 7.

Take “TAGGAAAAGAAAAGCACACACATAAATAGATATATA [CACACA_site6382]”: the “gcPBM binding intensity (ln)” value amounted to 6.59.

In the case of “ATATATATATATATATATATAATTTTTTTTGTTTTT [TGCATGCA_negctrl_site453]”, the “gcPBM binding intensity (ln)” value is 9.47.

Consider “TATATTATTAATTAGGGTACAAAAAAAAAATTTTTT [XGTACX_site7762]”, for which the “gcPBM binding intensity (ln)” value was determined as 6.67.

Take “GATATCAAAAAGATGGGTACATATATTTAAGTTCAT [XGTACX_site3822]”: the “gcPBM binding intensity (ln)” value was found to be 6.05.

For the sequence “TCTTTAATATATAGTGCATGTAAATTTTACAATAAT [TGCATGCA_site242]”, the “gcPBM binding intensity (ln)” value was found to be 8.14.

For “TATGGTATATACAACACACACACATATGTATATATA [CACACA_site927]”, the “gcPBM binding intensity (ln)” value stood at 6.88.

On to AAGTTAACACAACAGGTGCAAGAAAAGTTTTTAATG, for which the “gcPBM binding intensity (ln)” value came out at 8.29.

On to “ATCAAGCACGGACACACACACACACCCAGACCCCCA [CACACA_site4360]”, for which the “gcPBM binding intensity (ln)” value was 6.69.

For “AGTTAATGTTTATGTACACACGGTGGGTATATATTT [CACACA_site5785]”, the “gcPBM binding intensity (ln)” value is 6.76.

Regarding “ATATTATATATATGTGCACACAAAAGATATATATAT [CACACA_site2125]”, the “gcPBM binding intensity (ln)” value amounted to 10.5.

For the sequence “CTTAAAAAAACCTTAACACACATAAACTATAATTTA [CACACA_site3055]”, the “gcPBM binding intensity (ln)” value is 6.41.

For the sequence “TTTTCATTTGAAAGTCGTACAAGTTCGAAAAAAGGA [XGTACX_site6840]”, the “gcPBM binding intensity (ln)” value came out at 6.47.

Consider “ATAAGCAATAAAAAAACATGCATATTATTATCAACA [TGCATGCA_site1027]”, for which the “gcPBM binding intensity (ln)” value amounted to 6.43.

Take “TGCAACAAAATAAACACACACACACTAACACAAAAA [CACACA_site7567]”: the “gcPBM binding intensity (ln)” value stood at 6.76.

As for “TTTAAAAATAAAAGTACACACATAAACATATTGCAC [CACACA_site6784]”, the “gcPBM binding intensity (ln)” value is 7.47.

Regarding “CTTTTTTATATCTCTACACACATTTATAACAATTTG [CACACA_site1398]”, the “gcPBM binding intensity (ln)” value came to 6.98.

Consider “TACGTAATAATATGCACACAAATAAACTTTATAAAT [CACACA_site3501]”, for which the “gcPBM binding intensity (ln)” value amounted to 9.89.

As to TTTAAACGTTATATAGTGCATGTCATATTTTATTAT, the “gcPBM binding intensity (ln)” value came out at 7.26.

Consider “CAAAAAAGTAAAACGTGTACATATATACATAAAAAT [XGTACX_site5639]”, for which the “gcPBM binding intensity (ln)” value is 7.26.

In the case of “AAAACATACATATATACACACATATATATATATATA [CACACA_site1852]”, the “gcPBM binding intensity (ln)” value is 9.38.

Consider “CAAACTACAAAATTTCGTACGCATATATTTCAAGTA [XGTACX_site5154]”, for which the “gcPBM binding intensity (ln)” value turned out to be 6.39.

Regarding “TATGTTGGTTCTTTTAGTACATAATTACTAAATGTA [XGTACX_site8616]”, the “gcPBM binding intensity (ln)” value was determined as 6.43.

For the sequence “TATACATTTATGTACACACACATATAGGTATATTTA [CACACA_site7408]”, the “gcPBM binding intensity (ln)” value is 6.36.

As to “AAAATATAATATATTACACACATATATTTTATAAGT [CACACA_site668]”, the “gcPBM binding intensity (ln)” value worked out at 6.48.

On to “TTTTTTTAACGGTGTGCACACAATATACAGAAAAAA [CACACA_site1415]”, for which the “gcPBM binding intensity (ln)” value turned out to be 11.1.

In the case of “TATATACATTTATATACACACCTATATTTATTTATA [CACACA_site7014]”, the “gcPBM binding intensity (ln)” value was determined as 6.66.

Turning to “ATTATATATATTTATGCACACAAAATATATTATATA [CACACA_site9244]”, the “gcPBM binding intensity (ln)” value was 10.1.

Turning to “ATGTACCTATTTCATACACACACACCCACAAACAAA [CACACA_site8232]”, the “gcPBM binding intensity (ln)” value stood at 7.2.

Consider “TATATTGAAAATAAAACATGCAATCACTCATACATA [TGCATGCA_site248]”, for which the “gcPBM binding intensity (ln)” value came to 6.38.

In the case of “CAACAATTTCGTCATACACACATTCAGAATCTATAT [CACACA_site7171]”, the “gcPBM binding intensity (ln)” value came out at 6.58.

For the sequence “TATATATTAATATGCACACACAAGAAGTAATTATAA [CACACA_site3193]”, the “gcPBM binding intensity (ln)” value amounted to 9.89.

As for “GGCATACACGGACACACACACACACCGACATATATA [CACACA_site4493]”, the “gcPBM binding intensity (ln)” value stood at 7.32.

Consider “ATTATATAACAAAATAGTACATATATTTATTACATC [XGTACX_site336]”, for which the “gcPBM binding intensity (ln)” value came out at 6.19.

As to “TTATTCTAAAAAGGGTGTACACAAACGAATGGAAAA [XGTACX_site5662]”, the “gcPBM binding intensity (ln)” value is 7.6.

In the case of “AGCAGTCAGCAGGACAGTACACAGTAGCCAGGAAAT [XGTACX_site4877]”, the “gcPBM binding intensity (ln)” value came to 6.13.

Consider “AAAAAAAAAATTTAGGTGCATACAAATAAATTATAT [GTGCAC_site9521]”, for which the “gcPBM binding intensity (ln)” value worked out at 8.45.

For the sequence “ATGGCTAAAAGTTGCACACACACAAAAAAAAAAAAA [CACACA_site3289]”, the “gcPBM binding intensity (ln)” value came to 9.6.

For “TAATTTCTTATGTGCTATCTTATATAGAATTAATTT [CACACA_negctrl_site1726]”, the “gcPBM binding intensity (ln)” value worked out at 6.61.

As to “TATAAAAAATAAAATACACACACATATATATATATA [CACACA_site8365]”, the “gcPBM binding intensity (ln)” value was determined as 9.16.

With “TGCACAAAATTATGCACACACCTAAAATTAATTTTT [CACACA_site5596]”, the “gcPBM binding intensity (ln)” value was found to be 10.8.

In the case of “ATTCTAATCATATACACACCCATATATATATATATA [CACACA_site1774]”, the “gcPBM binding intensity (ln)” value is 9.38.

For “GGCAATGATTTTAGGTGTACTTAAAAATCAAATTAA [XGTACX_site8587]”, the “gcPBM binding intensity (ln)” value stood at 5.98.

“ACAAAAAATAATCAAAATGTATATATATAATATAAT [XGTACX_negctrl_site593]”: the “gcPBM binding intensity (ln)” value turned out to be 6.44.

Regarding “TATTGAAGTTATAAAGTGCAGATAAATATGAGTTAT [GTGCAC_site9945]”, the “gcPBM binding intensity (ln)” value was found to be 7.72.

As to “AAATGCCATATAATTTTTCTTAAACATAATTGTATA [CACACA_negctrl_site1665]”, the “gcPBM binding intensity (ln)” value came out at 5.96.

As for “ATTGTCTTCTCATATACACACTTTTATGACTATCTT [CACACA_site5696]”, the “gcPBM binding intensity (ln)” value worked out at 7.08.
